Experimental data as given in the supplement of paper PMC10670038.
Counter-ions that a name gives are not always drawn. ± gives the standard deviation of the averaged measurements. Whole data set: some 2,000 compounds, median “relative cell viability vs DMSO, compound alone” near 1.1, cut for the lowest 2% near 0.29. The list shows a part of the results.

The compounds below were run on TE10 (assay: relative cell viability vs DMSO, compound alone (fraction); TE10 is an esophageal squamous carcinoma line; higher = less cytotoxic). Details: 2 µM; 48 h.
Description: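 TE10 ESCC cells (1,000/well, 384-well plates) were treated with Selleck bioactive library compounds at 2 uM alone for 48 h. Viability was read by CellTiter-Glo and expressed relative to DMSO wells. Two technical replicates (A, B).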
`Cn1nc(C(C)(C)C)cc1C(=O)N[C@@H](Cc1cccc(Cl)c1)C(=O)NCC#N` [Cathepsin Inhibitor 1] gave a relative cell viability of 0.905 ± 0.12.
In the case of `O=C(Nc1ccccc1)N1CCN(c2nc(-c3ccccc3)ns2)CC1`, the relative cell viability is reported as 1.099 ± 0.007.
`Clc1cccc(CN=C2Nc3ccccc3NC23CCNCC3)c1` [Liproxstatin-1] gave a relative cell viability of 1.04 ± 0.024.
`CC(CNC(=O)c1cccnc1)NC(=O)c1cccnc1` (configuration not stated) [Nicaraven] gave a relative cell viability of 1.01 ± 0.097.
Compound `CCCCc1ncc(/C=C(\Cc2cccs2)C(=O)O)n1Cc1ccc(C(=O)O)cc1` [Eprosartan Mesylate] has a relative cell viability of 1.03 ± 0.073.
`CN1CCCN(C(=O)c2cccc(-c3ccc(/C=C4/C(=O)Nc5ccc(Cl)cc54)o3)c2)CC1` was tested, and the relative cell viability was 0.882 ± 0.061.
Compound `CCCCCCCCOc1ccccc1C(=O)Nc1ccc(C(=O)OCC[N+](C)(CC)CC)cc1` [Otilonium Bromide] has a relative cell viability of 1.05 ± 0.046.
In the case of `CN1CCN2c3ccccc3Cc3ccccc3C2C1` (configuration not stated) [Mianserin HCl], the relative cell viability is reported as 1.07 ± 0.094.
`COc1cccc(-c2cc(F)ccc2C2Cc3nc(N)nc(C)c3C(=O)N2)n1` (configuration not stated) was tested, and the relative cell viability was 0.555 ± 0.066.
For `O=c1cc(N2CCOCC2)oc2c(-c3ccccc3)cccc12`, the relative cell viability was 0.971 ± 0.072.
In the case of `Cc1cnc(NC(=O)Nc2cc(Br)c(C)cc2OC[C@@H]2CNCCO2)cn1`, the relative cell viability is reported as 0.627 ± 0.07.
`Cc1ccc(Sc2cncc3sc(C(N)=O)cc23)cc1` was tested, and the relative cell viability was 1.13 ± 0.071.
With `Nc1cc(C(F)(F)F)c(-c2cc(N3CCOCC3)nc(N3CCOCC3)n2)cn1` [BKM120 (NVP-BKM120, Buparlisib)] the relative cell viability was 0.469 ± 0.025.
With `Cc1c(C(=O)Nc2ccc(N3C[C@@H](C)O[C@@H](C)C3)nc2)cccc1-c1ccc(OC(F)(F)F)cc1` [LDE225 (NVP-LDE225,Erismodegib)] the relative cell viability was 0.972 ± 0.036.
Work on `OCC(CO)N[C@H]1C[C@](O)(CO)[C@@H](O)[C@H](O)[C@H]1O` [Voglibose] yielded a relative cell viability of 0.96 ± 0.042.
`CCc1ccc(/C=C2/SC(=S)NC2=O)cc1` was tested, and the relative cell viability was 1.03 ± 0.016.
Compound `Cc1ccc(Nc2nccc(N(C)c3ccc4c(C)n(C)nc4c3)n2)cc1S(N)(=O)=O` [Pazopanib HCl] has a relative cell viability of 1.18 ± 0.08.
With `Cc1ccc(Nc2nccc(N(C)c3ccc4c(C)n(C)nc4c3)n2)cc1S(N)(=O)=O` [Pazopanib] the relative cell viability was 0.946 ± 0.03.
Work on `COc1cc(Nc2ncc3c(n2)-c2ccc(Cl)cc2C(c2c(F)cccc2OC)=NC3)ccc1C(=O)O` [Alisertib (MLN8237)] yielded a relative cell viability of 1.07 ± 0.077.
`CCCCC(=O)N(Cc1ccc(-c2ccccc2-c2nnn[nH]2)cc1)[C@H](C(=O)O)C(C)C` [Valsartan] gave a relative cell viability of 1.2 ± 0.047.
For `Cc1[nH]nc2ccc(-c3cncc(OC[C@@H](N)Cc4ccccc4)c3)cc12`, the relative cell viability was 0.5847 ± 0.0027.
Work on `CC(C)[C@H](O)C(=O)N[C@@H](C)C(=O)N[C@@H]1C(=O)N(C)CCc2ccccc21` yielded a relative cell viability of 1.055 ± 0.0076.
